# Data: the supplement of paper PMC8728848
# Some of the results follow.
# B1: BT3172pd (Bacteroides thetaiotaomicron) (protein)
# chain: MLPLRAEHYYYKQISLKEGLPSNVRCILRDEQGFIWIGTKAGLGKFDGHQLKRYKHQANDPHSLLHNLIYQIAEDKQHNIWILTEKGIARYQQQSNNFTFPTDEEGNYITAYSFCLVPDGILFGGKDRIYKYSYKDSSLRLLQYFNANSFKITALSVWDSKTLLCCSRWTGLYLVDLQTGEHRRPPFDCGPEITSMITDSKNRIWIAPYSGGLRCYSRDGKLSASYTTHNSSLSNDIVLSLAEREEQLWIGTDGGGINILHPETGEISQLEYIPGRENYSLPANSILCLHNDYNNNVWAGSTCNGLISIREVSMKTYTDVVPGNDRGLSNGTVRSLYRQSPDSIWIGTDGGGINLFSPHTEKFTHYSSTWGDKVAFISGFTPGKLLISLFSKGVFVFNPATGEKQPFTIIDKETTTRLCNRGKSVNLYQNTPNTVLFLGDHIYQYHLKEKKFSTITEEEGKDIVGTLVPFDHQENLTYINDIKHIYELDDQTSRLKTVFECYTDTVISSVSHDEQGHFWIGSNFGLIHYDPVLKSRTLVPTNLFTEINMVLCDQKGKVWIGVDNMLFAYFIKEQKFVLFGESNGAIQNEYLPNARLVNEQGDAYIGGVKGMLRIDGQLLLNTSEMPELQLLDITINGESANHEWYNHPAKISVPWNSNISIRIMSREEDIFRQKIYRYQIEGLNNEYTESYNPELVIRSLLPGSYRIMASCTAKDGSWIPDQQVLELTVLPPWYRTHHHHHH
# How the values were obtained:
# Experiment in all cases: glycan array binding signal (z-score within array); higher = stronger binding
# Conditions in all cases: glycan notation: IUPAC condensed, linker removed
# [1] = molecular target: GlcNAc(b1-2)Gal(b1-3)GalNAc
# Summary of the method: (§1)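 Negative Z-scores can be read as non-binding. The Z-score is calculated within each array and then averaged across arrays of one protein sequence at different concentrations or buffers and across linkers. Arrays, 3228 in all, were curated from the Consortium for Functional Glycomics database and kept only where the protein sequence was available.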
# [2] = molecular target: GlcNAc(b1-2)Man(a1-3)[GlcNAc(b1-2)Man(a1-6)]Man(b1-4)GlcNAc(b1-4)GlcNAc
# Summary of the method: as §1
# [3] = molecular target: GlcNAc(b1-2)Man(a1-3)[GlcNAc(b1-2)Man(a1-6)]Man(b1-4)GlcNAc(b1-4)[Fuc(a1-6)]GlcNAc
# Summary of the method: as §1
# [4] = molecular target: GlcNAc(b1-2)Man(a1-3)[GlcNAc(b1-4)][GlcNAc(b1-2)Man(a1-6)]Man(b1-4)GlcNAc(b1-4)GlcNAc
# Summary of the method: as §1
# [5] = molecular target: GlcNAc(b1-2)Man(a1-3)[GlcNAc(b1-4)][GlcNAc(b1-2)Man(a1-6)]Man(b1-4)GlcNAc(b1-4)[Fuc(a1-6)]GlcNAc
# Summary of the method: as §1
# [6] = molecular target: GlcNAc(b1-2)[GlcNAc(b1-4)]Man(a1-3)[GlcNAc(b1-2)Man(a1-6)]Man(b1-4)GlcNAc(b1-4)GlcNAc
# Summary of the method: as §1
# [7] = molecular target: GlcNAc(b1-2)[GlcNAc(b1-4)]Man(a1-3)[GlcNAc(b1-4)][GlcNAc(b1-2)Man(a1-6)]Man(b1-4)GlcNAc(b1-4)GlcNAc
# Summary of the method: as §1
# [8] = molecular target: GlcNAc(b1-2)[GlcNAc(b1-4)]Man(a1-3)[GlcNAc(b1-4)][GlcNAc(b1-2)[GlcNAc(b1-6)]Man(a1-6)]Man(b1-4)GlcNAc(b1-4)GlcNAc
# Summary of the method: as §1
# [9] = molecular target: GlcNAc(b1-2)[GlcNAc(b1-4)]Man(a1-3)[GlcNAc(b1-4)][GlcNAc(b1-2)[GlcNAc(b1-6)]Man(a1-6)]Man(b1-4)GlcNAc(b1-4)[Fuc(a1-6)]GlcNAc
# Summary of the method: as §1
# [10] = molecular target: GlcNAc(b1-2)[GlcNAc(b1-6)]Man(a1-6)[GlcNAc(b1-2)Man(a1-3)]Man(b1-4)GlcNAc(b1-4)GlcNAc
# Summary of the method: as §1
# [11] = molecular target: GlcNAc(b1-2)[GlcNAc(b1-6)]Man(a1-6)[GlcNAc(b1-2)Man(a1-3)]Man(b1-4)GlcNAc(b1-4)[Fuc(a1-6)]GlcNAc
# Summary of the method: as §1
# [12] = molecular target: GlcNAc(b1-2)[GlcNAc(b1-6)]Man(a1-6)[GlcNAc(b1-4)][GlcNAc(b1-2)Man(a1-3)]Man(b1-4)GlcNAc(b1-4)GlcNAc
# Summary of the method: as §1
# GlcNAc(b1-3)Fuc = molecular target: GlcNAc(b1-3)Fuc
# Summary of the method: as §1
# GlcNAc(b1-3)Gal = molecular target: GlcNAc(b1-3)Gal
# Summary of the method: as §1
# [13] = molecular target: GlcNAc(b1-3)Gal(b1-3)GalNAc
# Summary of the method: as §1
# GlcNAc(b1-3)Gal(b1-4)Glc = molecular target: GlcNAc(b1-3)Gal(b1-4)Glc
# Summary of the method: as §1
# [14] = molecular target: GlcNAc(b1-3)Gal(b1-4)GlcNAc
# Summary of the method: as §1
# [15] = molecular target: GlcNAc(b1-3)Gal(b1-4)GlcNAc(b1-2)Man(a1-3)[GlcNAc(b1-3)Gal(b1-4)GlcNAc(b1-2)Man(a1-6)]Man(b1-4)GlcNAc(b1-4)GlcNAc
# Summary of the method: as §1
# [16] = molecular target: GlcNAc(b1-3)Gal(b1-4)GlcNAc(b1-2)Man(a1-3)[GlcNAc(b1-3)Gal(b1-4)GlcNAc(b1-2)Man(a1-6)]Man(b1-4)GlcNAc(b1-4)[Fuc(a1-6)]GlcNAc
# Summary of the method: as §1
# [17] = molecular target: GlcNAc(b1-3)Gal(b1-4)GlcNAc(b1-2)[GlcNAc(b1-3)Gal(b1-4)GlcNAc(b1-6)]Man(a1-6)[GlcNAc(b1-3)Gal(b1-4)GlcNAc(b1-2)Man(a1-3)]Man(b1-4)GlcNAc(b1-4)GlcNAc
# Summary of the method: as §1
# [18] = molecular target: GlcNAc(b1-3)Gal(b1-4)GlcNAc(b1-3)Gal(b1-4)GlcNAc
# Summary of the method: as §1
# [19] = molecular target: GlcNAc(b1-3)Gal(b1-4)GlcNAc(b1-3)Gal(b1-4)GlcNAc(b1-2)Man(a1-3)[GlcNAc(b1-3)Gal(b1-4)GlcNAc(b1-3)Gal(b1-4)GlcNAc(b1-2)Man(a1-6)]Man(b1-4)GlcNAc(b1-4)GlcNAc
# Summary of the method: as §1
# [20] = molecular target: GlcNAc(b1-3)Gal(b1-4)GlcNAc(b1-3)Gal(b1-4)GlcNAc(b1-2)Man(a1-3)[GlcNAc(b1-3)Gal(b1-4)GlcNAc(b1-3)Gal(b1-4)GlcNAc(b1-2)Man(a1-6)]Man(b1-4)GlcNAc(b1-4)[Fuc(a1-6)]GlcNAc
# Summary of the method: as §1
# [21] = molecular target: GlcNAc(b1-3)Gal(b1-4)GlcNAc(b1-3)Gal(b1-4)GlcNAc(b1-2)[GlcNAc(b1-3)Gal(b1-4)GlcNAc(b1-3)Gal(b1-4)GlcNAc(b1-6)]Man(a1-6)[GlcNAc(b1-3)Gal(b1-4)GlcNAc(b1-3)Gal(b1-4)GlcNAc(b1-2)Man(a1-3)]Man(b1-4)GlcNAc(b1-4)[Fuc(a1-6)]GlcNAc
# Summary of the method: as §1
# [22] = molecular target: GlcNAc(b1-3)Gal(b1-4)GlcNAc(b1-3)Gal(b1-4)GlcNAc(b1-3)Gal(b1-4)GlcNAc(b1-2)Man(a1-3)[GlcNAc(b1-3)Gal(b1-4)GlcNAc(b1-3)Gal(b1-4)GlcNAc(b1-3)Gal(b1-4)GlcNAc(b1-2)Man(a1-6)]Man(b1-4)GlcNAc(b1-4)GlcNAc
# Summary of the method: as §1
# [23] = molecular target: GlcNAc(b1-3)Gal(b1-4)GlcNAc(b1-3)Gal(b1-4)GlcNAc(b1-3)Gal(b1-4)GlcNAc(b1-2)Man(a1-3)[GlcNAc(b1-3)Gal(b1-4)GlcNAc(b1-3)Gal(b1-4)GlcNAc(b1-3)Gal(b1-4)GlcNAc(b1-2)Man(a1-6)]Man(b1-4)GlcNAc(b1-4)[Fuc(a1-6)]GlcNAc
# Summary of the method: as §1
# [24] = molecular target: GlcNAc(b1-3)Gal(b1-4)GlcNAc(b1-3)Gal(b1-4)GlcNAc(b1-3)Gal(b1-4)GlcNAc(b1-2)[GlcNAc(b1-3)Gal(b1-4)GlcNAc(b1-3)Gal(b1-4)GlcNAc(b1-3)Gal(b1-4)GlcNAc(b1-6)]Man(a1-6)[GlcNAc(b1-3)Gal(b1-4)GlcNAc(b1-3)Gal(b1-4)GlcNAc(b1-3)Gal(b1-4)GlcNAc(b1-2)Man(a1-3)]Man(b1-4)GlcNAc(b1-4)[Fuc(a1-6)]GlcNAc
# Summary of the method: as §1
# [25] = molecular target: GlcNAc(b1-3)Gal(b1-4)GlcNAc(b1-3)Gal(b1-4)GlcNAc(b1-3)Gal(b1-4)GlcNAc(b1-3)Gal(b1-4)GlcNAc(b1-2)Man(a1-3)[GlcNAc(b1-3)Gal(b1-4)GlcNAc(b1-3)Gal(b1-4)GlcNAc(b1-3)Gal(b1-4)GlcNAc(b1-3)Gal(b1-4)GlcNAc(b1-2)Man(a1-6)]Man(b1-4)GlcNAc(b1-4)GlcNAc
# Summary of the method: as §1
# [26] = molecular target: GlcNAc(b1-3)Gal(b1-4)GlcNAc(b1-3)Gal(b1-4)GlcNAc(b1-3)Gal(b1-4)GlcNAc(b1-3)Gal(b1-4)GlcNAc(b1-2)Man(a1-3)[GlcNAc(b1-3)Gal(b1-4)GlcNAc(b1-3)Gal(b1-4)GlcNAc(b1-3)Gal(b1-4)GlcNAc(b1-3)Gal(b1-4)GlcNAc(b1-2)Man(a1-6)]Man(b1-4)GlcNAc(b1-4)[Fuc(a1-6)]GlcNAc
# Summary of the method: as §1
# [27] = molecular target: GlcNAc(b1-3)Gal(b1-4)GlcNAc(b1-3)Gal(b1-4)GlcNAc(b1-3)Gal(b1-4)GlcNAc(b1-3)Gal(b1-4)GlcNAc(b1-2)[GlcNAc(b1-3)Gal(b1-4)GlcNAc(b1-3)Gal(b1-4)GlcNAc(b1-3)Gal(b1-4)GlcNAc(b1-3)Gal(b1-4)GlcNAc(b1-6)]Man(a1-6)[GlcNAc(b1-3)Gal(b1-4)GlcNAc(b1-3)Gal(b1-4)GlcNAc(b1-3)Gal(b1-4)GlcNAc(b1-3)Gal(b1-4)GlcNAc(b1-2)Man(a1-3)]Man(b1-4)GlcNAc(b1-4)[Fuc(a1-6)]GlcNAc
# Summary of the method: as §1
binder,measurement,setting,value
B1,glycan array binding signal (z-score),[1],-0.448
same,glycan array binding signal (z-score),[2],-0.004
same,glycan array binding signal (z-score),[3],-0.432
same,glycan array binding signal (z-score),[4],-0.689
same,glycan array binding signal (z-score),[5],0.427
same,glycan array binding signal (z-score),[6],-0.461
same,glycan array binding signal (z-score),[7],0.382
same,glycan array binding signal (z-score),[8],-0.149
same,glycan array binding signal (z-score),[9],-0.738
same,glycan array binding signal (z-score),[10],-0.563
same,glycan array binding signal (z-score),[11],-0.17
same,glycan array binding signal (z-score),[12],-0.604
same,glycan array binding signal (z-score),GlcNAc(b1-3)Fuc,0.844
same,glycan array binding signal (z-score),GlcNAc(b1-3)Gal,-0.508
same,glycan array binding signal (z-score),[13],0.3
same,glycan array binding signal (z-score),GlcNAc(b1-3)Gal(b1-4)Glc,-0.285
same,glycan array binding signal (z-score),[14],-0.419
same,glycan array binding signal (z-score),[15],-0.327
same,glycan array binding signal (z-score),[16],-0.74
same,glycan array binding signal (z-score),[17],-0.977
same,glycan array binding signal (z-score),[18],-0.505
same,glycan array binding signal (z-score),[19],-0.177
same,glycan array binding signal (z-score),[20],-0.504
same,glycan array binding signal (z-score),[21],-0.268
same,glycan array binding signal (z-score),[22],-0.361
same,glycan array binding signal (z-score),[23],-0.183
same,glycan array binding signal (z-score),[24],-0.376
same,glycan array binding signal (z-score),[25],-0.791
same,glycan array binding signal (z-score),[26],1.08
same,glycan array binding signal (z-score),[27],-0.365
